# Measurements from PubChem BioAssay (Tox21).
# Inconclusive means that the source gave no clear call. Such entries were picked first, then a sample of the others. For part of these data: Potencies beside an inconclusive call are fits to weak or partial responses and may not hold up. The source holds several records for some structures; these can differ, active in one and inactive in another. Activity calls are given as the source filed them. Calls follow the shape of the dose curve; as a rule, active = well fitted curve in the direction sought with a large enough effect in the repeat runs; inconclusive = weak or mixed curves; inactive = no such curve, though single readings can be large; an effect the other way counts as inactive or inconclusive.
# How the values were obtained:
# [1] = A CellTox Green Cytotoxicity Assay to monitor cytotoxicity in HepG2 cells - 0 hour (AID 1224882); also: potency is read from the fitted curve at half-maximal effect; nearly all actives have a fitted effect of over 35% in size
# Outline: (§1)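 Nonlytic assay: viable cells exclude the dye, so fluorescence scales with cell death. HepG2 at 600 cells/well, compounds added after 5 h, signal read across 40 h.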
# [2] = qHTS RealTime-Glo MT Cell Viability Assay in HEK293 cells - 16 hour (AID 1224872); also: nearly all actives have a fitted effect of over 50% in size; also: potency is read from the fitted curve at half-maximal effect; as to activity change, negative = cytotoxicity: top concentration of the series differs between compounds; % is scaled to controls: 0 for no effect and ±100 for the full control effect
# Outline: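 Nonlytic real-time viability readout: viable cells convert prosubstrate to NanoLuc substrate, giving luminescence proportional to live cell number. HEK293, 600 cells/well, compound added after 5 h, continuous culture at 37 C.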
# [3] = A CellTox Green Cytotoxicity Assay to monitor cytotoxicity in HepG2 cells - 40 hour (AID 1224879); also: nearly all actives have a fitted effect of over 40% in size; also: potency is read from the fitted curve at half-maximal effect
# Outline: as §1
# [4] = A CellTox Green Cytotoxicity Assay to monitor cytotoxicity in HEK293 cells - 24 hour (AID 1224875); also: nearly all actives have a fitted effect of over 45% in size; also: potency is read from the fitted curve at half-maximal effect; as to activity change: series mostly up to about 77 µM; % is scaled to controls: 0 for no effect and ±100 for the full control effect
# Outline: (§2)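 Seeding of HEK293 cells together with cytotoxicity dye preceded a 5 h incubation at 37 C/5% CO2. Test compounds in DMSO were then added and fluorescence monitored across 40 h.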
# [5] = qHTS RealTime-Glo MT Cell Viability Assay in HEK293 cells - 0 hour (AID 1224880); also: nearly all actives have a fitted effect of over 45% in size; also: potency is read from the fitted curve at half-maximal effect
# Outline: (§3)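 Tox21 screen in HEK293 using RealTime-Glo MT chemistry, with cells and reagent co-dispensed. Luminescence proportional to viable cell number was captured at intervals during 40 h compound exposure at 37 C.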
# [6] = qHTS RealTime-Glo MT Cell Viability Assay in HEK293 cells - 40 hour (AID 1224874); details: RealTime-Glo luminescence; max response: active compounds read low; also: potency is read from the fitted curve at half-maximal effect; nearly all actives have a fitted effect of over 50% in size
# Outline: as §3
# [7] = qHTS RealTime-Glo MT Cell Viability Assay in HepG2 cells - 8 hour (AID 1224873); also: nearly all actives have a fitted effect of over 55% in size; also: potency is read from the fitted curve at half-maximal effect
# Outline: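 Real-time viability: cells seeded at 600 per well together with NanoLuc and cell-permeant prosubstrate, compounds added after 5 h incubation. Luminescence tracked at 0, 8, 16, 24, 32 and 40 h of exposure.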
# [8] = A CellTox Green Cytotoxicity Assay to monitor cytotoxicity in HepG2 cells - 24 hour (AID 1224878); also: potency is read from the fitted curve at half-maximal effect; nearly all actives have a fitted effect of over 45% in size
# Outline: as §1
# [9] = A CellTox Green Cytotoxicity Assay to monitor cytotoxicity in HEK293 cells - 32 hour (AID 1224881); also: nearly all actives have a fitted effect of over 40% in size; also: potency is read from the fitted curve at half-maximal effect; as to cytotoxicity increase: % is scaled to controls: 0 for no effect and ±100 for the full control effect
# Outline: as §2
# [10] = A CellTox Green Cytotoxicity Assay to monitor cytotoxicity in HepG2 cells - 16 hour (AID 1224876); also: nearly all actives have a fitted effect of over 45% in size; also: potency is read from the fitted curve at half-maximal effect; as to cytotoxicity increase: % is scaled to controls: 0 for no effect and ±100 for the full control effect
# Outline: as §1
# [11] = qHTS RealTime-Glo MT Cell Viability Assay in HepG2 cells - 32 hour (AID 1224877); also: % is scaled to controls: 0 for no effect and ±100 for the full control effect; nearly all actives have a fitted effect of over 55% in size
# Outline: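 Luminescence read-out: viable HepG2 cells reduce a prosubstrate to a NanoLuc substrate, giving a signal proportional to live cell number. Reads taken at 0, 8, 16, 24, 32 and 40 h of compound exposure at 37 C.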
# Tags tell the direction and shape of the fitted curve.
smiles,measurement,setting,value
O=C(O)CN(CCN(CC(=O)O)CC(=O)O)CC(=O)O,Potency,[1],active: 1.74 µM
CC(C)CC(C)CC(O)CC(C)C (centres undefined),Potency,[1],"inconclusive: 61.7 µM [activator, single point]"
COC(=O)c1sccc1S(N)(=O)=O,Potency,[2],inactive
same,Potency,[3],"inconclusive: 21.9 µM [activator, single point]"
Nc1nc2ncc(CNc3ccc(C(=O)N[C@@H](CCC(=O)O)C(=O)O)cc3)nc2c(=O)[nH]1,Potency,[2],"inconclusive: 34.7 µM [rising, partial curve, poor fit]"
O=C1CCCCCCCCCCCCCCO1,Potency,[2],inactive
COCC(C)O (centres undefined),Potency,[2],inactive
same,Potency,[4],inactive
same,Potency,[5],"inconclusive: 63.1 µM [rising, partial curve, poor fit]"
OCCCCCCCCCCCCBr,Potency,[2],"inconclusive: 7.02 µM [cytotoxic, full curve]"
same,Potency,[6],active: 11.1 µM
Nc1nc(Cl)nc2c1ncn2[C@@H]1O[C@H](CO)[C@@H](O)[C@@H]1F,Potency,[2],"inconclusive: 5.35 µM [cytotoxic, full curve]"
same,Potency,[3],"inconclusive: 0.535 µM [activator, single point]"
CCOC(=O)[C@H](CCc1ccccc1)N[C@@H](C)C(=O)N1CCC[C@H]1C(=O)O,Potency,[7],inactive
O=C(NC(Cc1cc(=O)[nH]c2ccccc12)C(=O)O)c1ccc(Cl)cc1 (centres undefined),Potency,[2],inactive
CCc1cc2cc(OC)c(OC)cc2c(Cc2ccccc2)n1,Potency,[2],active: 16.9 µM
same,Potency,[8],"inconclusive: 10.7 µM [activator, single point]"
same,Potency,[3],"inconclusive: 9.52 µM [activator, single point]"
same,Potency,[9],inactive
same,Potency,[1],"inconclusive: 10.7 µM [activator, single point]"
COc1ccc2cccc(CCNC(C)=O)c2c1,Potency,[2],inactive
same,Potency,[7],"inconclusive: 23.9 µM [falling, partial curve, poor fit]"
same,Potency,[10],"inconclusive: 10.7 µM [activator, single point]"
same,Potency,[8],"inconclusive: 10.7 µM [activator, single point]"
same,Potency,[3],"inconclusive: 10.7 µM [activator, single point]"
same,Potency,[1],"inconclusive: 10.7 µM [activator, single point]"
N[C@H]1C(O)O[C@H](CO)[C@@H](O)[C@@H]1O (some centres undefined),Potency,[2],"inconclusive: 0.535 µM [cytotoxic, single point]"
same,Potency,[10],inactive
same,Potency,[5],inactive
Nc1c(S(=O)(=O)O)cc(Br)c2c1C(=O)c1ccccc1C2=O,Potency,[2],"inconclusive: 43.6 µM [cytotoxic, partial curve, poor fit]"
same,Potency,[7],inactive
Cc1cscn1,Potency,[2],inactive
C=CC(=O)NC(C)C,Potency,[2],inactive
C=C(C)C(=O)OCCOCCOC(=O)C(=C)C,Potency,[2],inactive
CC1CCC(C(C)(C)S)C(=O)C1 (centres undefined),Potency,[2],active: 6.92 µM
CCCCCCCCCCN,Potency,[7],inactive
COc1nc(C)nc(N)n1,Potency,[2],inactive
COc1ccc(CCN(C)CCCN2CCc3cc(OC)c(OC)cc3CC2=O)cc1OC,Potency,[2],inactive
O=C(NCCN1CCOCC1)c1ccc(Cl)cc1,Potency,[2],inactive
same,Potency,[9],inactive
CCCCCCCCCCCCCCCCCC(=O)OCCCCCCCCCCCCCC(C)C,Potency,[2],inactive
same,Potency,[9],inactive
NCCCN1CCN(CCCN)CC1,Potency,[2],inactive
same,Potency,[8],"inconclusive: 1.95 µM [activator, single point]"
same,Potency,[3],"inconclusive: 0.436 µM [activator, full curve, poor fit]"
CCCN(CCC)CCc1cccc2c1CC(=O)N2,Potency,[2],inactive
same,Potency,[9],inactive
NC(Cc1ccc(F)cc1)C(=O)O (centres undefined),"activity change, negative = cytotoxicity",[2],inactive: 1.36% [at 6.97 µM]
OC[C@H]1O[C@H](O[C@H]2O[C@H](CO)[C@@H](O)[C@H](O)[C@H]2O)[C@H](O)[C@@H](O)[C@@H]1O,Potency,[2],inactive
CCC(CN)=C(c1ccccc1)c1ccccc1,Potency,[2],inactive
same,Potency,[3],"inconclusive: 30.1 µM [activator, partial curve, poor fit]"
same,Potency,[5],"inconclusive: 16.9 µM [rising, partial curve]"
same,Potency,[9],inactive
CCCCCCCCCCC=CC1CC(=O)OC1=O (centres undefined),Potency,[2],inactive
same,Potency,[10],"inconclusive: 62 µM [activator, single point]"
same,Potency,[8],"inconclusive: 55.2 µM [activator, single point]"
same,Potency,[3],"inconclusive: 55.2 µM [activator, single point]"
O=c1[nH][nH]c(=O)c2cc([N+](=O)[O-])ccc12,Potency,[2],inactive
OCCN1CCN(CCCN2c3ccccc3C=Cc3ccccc32)CC1,Potency,[2],inactive
same,Potency,[6],"inconclusive: 12 µM [cytotoxic, partial curve]"
CC(C)COC(=O)C(C)C,Potency,[2],inactive
COc1ccc(C2C(=O)c3ccccc3C2=O)cc1,Potency,[2],inactive
CCCNCCC,Potency,[2],inactive
CCCCCc1ccc(Cl)cc1,Potency,[2],"inconclusive: 15.5 µM [cytotoxic, full curve]"
same,Potency,[5],inactive
Cc1ccc2c(c1)CCCN2,Potency,[2],inactive
same,Potency,[10],inactive
Cc1ccc(Cl)cc1N,Potency,[2],inactive
COC(=O)c1ccc(C(=O)OC)cc1,Potency,[2],active: 35.1 µM
same,Potency,[6],active: 35.1 µM
same,Potency,[9],"inconclusive: 14 µM [activator, partial curve, poor fit]"
C=CC(C)(CCC=C(C)C)OC(=O)CC (centres undefined),Potency,[2],inactive
Nc1ccc(S(=O)(=O)Nc2ccccc2)cc1,Potency,[2],inactive
C=CC(C)(C)CC(=O)OC,Potency,[2],active: 1.38 µM
CCCCN(CCCC)CCCCCCN(CCCC)CCCC,Potency,[9],inactive
c1ccc(CCc2ccccc2)cc1,Potency,[9],"inconclusive: 24.5 µM [activator, partial curve]"
CCCCCCCCCCCCCCCCCCOCC(O)CO (centres undefined),Potency,[10],"inconclusive: 30.1 µM [activator, single point]"
same,Potency,[8],"inconclusive: 26.8 µM [activator, single point]"
same,Potency,[1],"inconclusive: 26.8 µM [activator, single point]"
c1ccc2sc(SSc3nc4ccccc4s3)nc2c1,cytotoxicity increase,[10],inactive: 2.16% [at 15.8 µM]
C=C(C)C(=O)OCCN(CC)CC,Potency,[4],inactive
CC12CC3CC(C)(C1)CC(N)(C3)C2,Potency,[4],inactive
CC(C)NC[C@@H](O)COc1ccc(CC(N)=O)cc1,Potency,[4],inactive
CC(=O)OCCC1CCCCC1,Potency,[10],"inconclusive: 0.49 µM [activator, single point]"
same,Potency,[8],"inconclusive: 61.6 µM [activator, single point]"
same,Potency,[3],"inconclusive: 54.9 µM [activator, single point]"
CCn1cc(C(=O)O)c(=O)c2ccc(C)nc21,Potency,[4],"inconclusive: 0.616 µM [activator, partial curve]"
same,Potency,[9],"inconclusive: 0.691 µM [activator, partial curve]"
CCCc1ccccc1,Potency,[10],inactive
CC/C=C\CCO,Potency,[10],inactive
CC[C@@H](CO)NCCN[C@@H](CC)CO,Potency,[4],inactive
CC(C(=O)O)c1ccc2c(c1)[nH]c1ccc(Cl)cc12 (centres undefined),Potency,[10],inactive
same,Potency,[5],"inconclusive: 26.8 µM [falling, partial curve, poor fit]"
Cc1ccc(C)c(N)c1,Potency,[4],inactive
same,Potency,[3],inactive
CCCCCCCCCCCCCOC(=O)CCSCCC(=O)OCCCCCCCCCCCCC,cytotoxicity increase,[10],inactive: -0.0072% [at 15.8 µM]
CC(=O)NCCO,Potency,[4],inactive
CC1=CC[C@@]23C[C@@H]1C(C)(C)[C@@H]2CC[C@H]3C,Potency,[10],inactive
same,Potency,[8],"inconclusive: 61.6 µM [activator, partial curve, poor fit]"
same,Potency,[3],"inconclusive: 54.9 µM [activator, partial curve, poor fit]"
same,Potency,[5],"inconclusive: 21.9 µM [falling, full curve]"
CC(=O)Nc1ccc2c(c1)Cc1cc(NC(C)=O)ccc1-2,Potency,[4],inactive
same,Potency,[3],"inconclusive: 43.6 µM [activator, partial curve, poor fit]"
N[C@@H](Cc1cc(I)c(O)c(I)c1)C(=O)O,Potency,[10],inactive
Cc1cn([C@H]2C[C@H](N=[N+]=[N-])[C@@H](CO)O2)c(=O)[nH]c1=O,Potency,[10],"inconclusive: 10.7 µM [activator, single point]"
same,Potency,[11],inactive
same,Potency,[8],"inconclusive: 13.4 µM [activator, single point]"
same,Potency,[3],"inconclusive: 15.1 µM [activator, single point]"
same,Potency,[1],"inconclusive: 13.4 µM [activator, single point]"
O=[N+]([O-])c1cccc(C(F)(F)F)c1,Potency,[4],inactive
Cc1cnc(C)c(C)n1,Potency,[4],"inconclusive: 36.3 µM [activator, partial curve, poor fit]"
CCNc1cc(O)ccc1C,Potency,[4],active: 38.5 µM
same,Potency,[9],active: 34.3 µM
CC(C)(C)NC(N)=O,Potency,[4],"inconclusive: 61.6 µM [activator, partial curve, poor fit]"
CCCCCCCCCCCCS,Potency,[4],"inconclusive: 1.95 µM [activator, partial curve, poor fit]"
same,Potency,[3],inactive
same,Potency,[9],"inconclusive: 1.55 µM [activator, partial curve, poor fit]"
COc1cc(OC)c2ccc(=O)oc2c1,Potency,[10],inactive
Cc1cccc2cccnc12,Potency,[4],inactive
C/C(=C1\CCOC(=O)S1)N(C=O)Cc1cnc(C)nc1N,Potency,[4],inactive
O=C(O)CNC(=O)c1ccccc1,Potency,[11],inactive
CC1(C)CC(N=C=O)CC(C)(CN=C=O)C1 (centres undefined),Potency,[10],inactive
same,Potency,[9],"inconclusive: 62.5 µM [activator, single point]"
CNC(=O)C(c1ccccc1)c1ccccc1,Potency,[10],"inconclusive: 61.6 µM [activator, single point]"
same,Potency,[8],"inconclusive: 61.6 µM [activator, single point]"
same,Potency,[3],"inconclusive: 61.6 µM [activator, single point]"
CCCCCCCCCC[N+](C)(C)[O-],Potency,[10],"inconclusive: 54.9 µM [activator, single point]"
same,Potency,[8],"inconclusive: 61.6 µM [activator, single point]"
same,Potency,[3],"inconclusive: 61.6 µM [activator, single point]"
